This is an account of results in PubChem BioAssay AID488969 (Vanderbilt High Throughput Screening Facility, 2010).

Over roughly 110,000 compounds, “z-score” has its median near -0.1; the highest 2% begin near 2. Some of the results follow. The source made the active and inactive calls.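 Rule for the calls: active = z-score in the third read window above 3 or below -3; inactive = the rest.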

In this assay the target is Metabotropic glutamate receptor 8 (Rattus norvegicus) (UniProt P70579). Put plainly: mGluR8 Gi/Go-coupled signaling modulation – cell-based, rat, thallium flux, HTS, primary screen (AID 488969). Particulars: HEK293 rat mGluR8, GIRK (G protein-gated inwardly rectifying potassium channel) thallium flux, FluoZin2; at 10 µM; stronger effect = higher value; submaximal glutamate (EC20) added with thallium.
Chain of UniProt P70579 (P70579 whole entry, looked up): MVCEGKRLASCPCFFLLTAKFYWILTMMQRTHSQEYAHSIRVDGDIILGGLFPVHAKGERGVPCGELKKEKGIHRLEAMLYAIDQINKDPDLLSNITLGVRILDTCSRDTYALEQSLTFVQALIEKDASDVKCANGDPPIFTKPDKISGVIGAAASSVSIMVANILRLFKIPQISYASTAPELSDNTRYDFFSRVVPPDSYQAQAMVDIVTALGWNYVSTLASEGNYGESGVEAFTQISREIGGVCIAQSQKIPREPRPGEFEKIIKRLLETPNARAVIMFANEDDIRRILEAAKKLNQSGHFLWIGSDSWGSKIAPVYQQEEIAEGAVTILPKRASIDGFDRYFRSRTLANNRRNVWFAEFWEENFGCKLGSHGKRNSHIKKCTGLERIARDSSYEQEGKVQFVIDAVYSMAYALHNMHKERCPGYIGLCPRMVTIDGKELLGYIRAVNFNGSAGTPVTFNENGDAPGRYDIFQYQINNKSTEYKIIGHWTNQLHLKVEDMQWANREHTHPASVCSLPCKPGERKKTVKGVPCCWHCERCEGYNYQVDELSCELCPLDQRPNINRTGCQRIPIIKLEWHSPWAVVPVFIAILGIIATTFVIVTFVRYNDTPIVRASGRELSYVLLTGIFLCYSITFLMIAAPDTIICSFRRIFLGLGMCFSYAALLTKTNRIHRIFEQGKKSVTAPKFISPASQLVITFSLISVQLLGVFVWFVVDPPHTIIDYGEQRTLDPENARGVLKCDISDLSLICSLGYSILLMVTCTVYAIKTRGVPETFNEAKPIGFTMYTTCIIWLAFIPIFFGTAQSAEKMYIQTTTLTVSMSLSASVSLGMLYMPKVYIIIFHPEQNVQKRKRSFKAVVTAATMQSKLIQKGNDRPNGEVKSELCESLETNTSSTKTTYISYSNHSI
`O=C(Nc1ccc(/C=C/c2nc3ccccc3o2)cc1)c1cccc(C(F)(F)F)c1`: the z-score is -0.18. Compound `Nc1ncnc(Sc2ccccc2)c1[N+](=O)[O-]` gave a z-score of -0.174. `N#C/C(=C\c1ccc(OC(=O)c2ccccn2)cc1)C(N)=O` gave a z-score of -0.197. With `Cc1c(NC(=O)C2(c3ccccc3)CCCC2)c(=O)n(-c2ccccc2)n1C` the figure was -0.188. Compound `O=C(NCC(F)(F)F)Nc1nnc(C(F)(F)F)s1` had a z-score of 0.0543. `Clc1ccc2c(N/N=C/c3ccccc3Br)ccnc2c1` registered a z-score of -0.0886. Regarding `COCCn1c(NCc2ccccc2)nc2c1c(=O)[nH]c(=O)n2C`, the z-score turned out to be 0.0776. With `COc1ccc(OC)c2sc(NC(=O)C3CC3)nc12` the figure was 0.399; with `CN(C)S(=O)(=O)c1ccc(-c2cn3ccccc3n2)cc1`, -0.363; with `Cc1cc(NC(=O)c2ccc3c(c2)OCO3)no1`, 0.871.

Consider `CCNC(=S)Nc1scc(-c2ccccc2)c1C(=O)OCC`, for which the z-score was active: 6.92. The figure for `CCOc1ccc(C(=O)NCCc2ccccc2)cc1` is 0.0133. `c1ccc(Cc2nnc3sc(Nc4ccccc4)nn23)cc1` came in with a z-score of -0.331. Regarding `O=C(O)Cc1sc(-c2ccc(Cl)cc2)nc1-c1ccccc1`, the z-score was -0.396.

`CS(=O)(=O)N(CC(=O)N1CCc2ccccc2C1)Cc1ccccc1` came in with a z-score of -0.301. With `O=C(N=Nc1c(O)[nH]c2ccc(Cl)cc12)c1cc(-c2cccs2)nc2ccccc12` the figure was -0.0899; with `O=C(O)c1ccc(CNCc2c(Cl)cccc2Cl)cc1`, 0.0291.

Take `CCOCCCNC(=O)c1ccc(OC(C)=O)cc1`: the z-score is 0.0534. `COc1ccccc1C(NC(=O)C1CCCCC1)c1c(O)ccc2ccccc12` (stereo unspecified) showed a z-score of -0.0917. Turning to `O=C(NCc1cccnc1)c1cc(Sc2cccc(Cl)c2)nc2ccccc12`, the z-score is -1.07. In the case of `COc1ccc(Cc2nn[nH]n2)cc1`, the z-score was -1.61. Take `COc1cc(C2N(c3ccc(F)cc3)C(=O)C3CCCN32)cc(OC)c1OC` (stereo unspecified): the z-score came to 0.416. `COc1cc2c(cc1OC)C(c1cccnc1)CC(=O)N2` (stereo unspecified) returned a z-score of -0.295. With `COc1ccc(NS(=O)(=O)c2cccc(-c3nnc(-c4ccccc4)o3)c2)cc1` the figure was -0.01. As to `Clc1ccc2c(c1)C=Nc1c(NCc3ccccc3)ncnc1O2`, the z-score was -0.39. The figure for `CC1(C)N=C(SCC(=O)Nc2ccc(Cl)cc2)C(c2ccc(Cl)cc2)=N1` is -0.255; for `CCC(=O)n1nc(NCc2ccc(OC)c(OC)c2)nc1NCc1ccc(OC)c(OC)c1` it is -0.465. For `c1ccc2c(N3CCCCC3)nc(N3CCCCC3)nc2c1`, the z-score is -0.832. The figure for `CCOc1ccccc1C(=O)Nc1ccccc1O` is -1.3; for `CCC(C)Sc1nc2c(c(=O)[nH]c(=O)n2C)n1CC(O)COc1ccccc1C` (stereo unspecified) it is -0.162; for `c1ccc(Oc2cc(-c3ccccc3)nc(-c3ccccc3)n2)cc1` it is -0.104. The figure for `O=C(NNC1=NCCC1)c1cccc(S(=O)(=O)N2CCCC2)c1` is -0.0376; for `COC(=O)CSC1=C(C#N)C(c2ccc3c(c2)OCO3)C2=C(CCCC2=O)N1` (stereo unspecified) it is -0.503; for `O=C(C1CCN(S(=O)(=O)c2cccs2)CC1)N1CCCCCC1` it is 0.139. `CN(C)S(=O)(=O)c1ccc(Cl)c(NC(=O)COc2ccccc2[N+](=O)[O-])c1` registered a z-score of -0.312. `Cc1cc(C(=O)CSc2nnc(-c3cccnc3)n2-c2ccccc2)c(C)n1CC1CCCO1` (stereo unspecified) yielded a z-score of -0.185. On to `CN(c1nc(-c2ccccc2)cs1)C1CCS(=O)(=O)C1` (stereo unspecified), for which the z-score was -0.0502. The figure for `COc1ccc(C2CC(c3ccccc3OC(C)=O)=NN2C(=O)/C=C/c2ccccc2)cc1` (stereo unspecified) is -0.18; for `Nc1nonc1C(=O)NCCN=Cc1cc(Cc2ccccc2)cc(Br)c1O` it is -1.18.

`CCc1nnc(NC(=O)c2cccs2)s1` gave a z-score of -0.225. As for `COc1ccc(C(=O)OCC(=O)Nc2cc(C)on2)cc1S(=O)(=O)N1CCOCC1`, the z-score was -0.0165. With `CC(=O)Nc1c(S(=O)(=O)c2ccccc2)c2nc3ccccc3nc2n1Cc1ccccc1` the figure was -0.16; with `O=C1C2C3C=CC(C3)C2C(=O)N1Cc1ccccc1` (stereo unspecified), 0.0272. As to `Cn1ncc(Cl)c1C(=O)Nc1sc2c(c1C(N)=O)CCC2`, the z-score was -0.167. `O=S(=O)(c1ccc(NC(=S)NCCC(c2ccccc2)c2ccccc2)cc1)N1CCOCC1` had a z-score of 0.0723. The compound `COc1cccc(-n2nnnc2S(C)(=O)=O)c1` showed a z-score of -0.44.

For `CCNC(=O)NC(=O)C(C)Sc1nc2cc(C(=O)OC)ccc2c(=O)n1-c1ccccc1` (stereo unspecified), the z-score turned out to be 0.204.

Consider `Cc1noc(/C=C/c2ccco2)c1S(=O)(=O)N1CCC(C(=O)Nc2ccc(Cl)cn2)CC1`, for which the z-score was determined as 0.112.

As to `CCCCn1c(N)c(-c2nc3ccccc3s2)c2c([N+](=O)[O-])nn(C)c(=O)c21`, the z-score was 1.31. The figure for `Cc1ccc(-c2nnn3c2nc(NCCc2ccc(S(N)(=O)=O)cc2)c2ccccc23)cc1` is -0.0825; for `Cc1ccc(C)c(NC(=O)CNS(=O)(=O)c2ccccc2)c1` it is -0.144. For the compound `Cc1ccc(N2C(=O)C3C(C(=O)c4ccccc4)=NN(c4ccccc4)C3C2=O)cc1` (stereo unspecified), the z-score is -1.78.

On to `CCOc1ccc(NC(=O)CCN2CCN(c3ccccc3F)CC2)cc1`, for which the z-score was -0.129.

In turn, `CS(=O)(=O)N(CC(=O)N1CCc2ccccc2C1)Cc1ccc(Cl)cc1` returned a z-score of 0.509. Consider `Cc1ccc(C)n1NC(=O)c1ccccc1`, for which the z-score turned out to be 0.00747. In turn, `COc1ccc2[nH]c(=O)c(CN(C(C)=O)C3CCCCC3)cc2c1` came in with a z-score of -0.00398. With `Cc1nc(N2CCCCC2)c2sc(=S)n(C)c2n1` the figure was 0.0149; with `CCOC(=O)c1sc2nccc(N(C)C)c2c1N=CNOC`, -0.245. `O=C(NCC1CCN(c2ccc(S(=O)(=O)N3CCOCC3)cc2)CC1)c1ccc(Cl)cc1`: the z-score is -0.78. Take `COc1ccc2nc(NC(=O)CCc3nc(-c4ccccc4F)no3)sc2c1`: the z-score was -0.0808. The figure for `CCOC(=O)c1c(NC(=O)c2nn(CC)cc2Br)sc(C)c1C` is -0.0607; for `Cc1cc(=O)n2[nH]c(-c3ccc(F)cc3)cc2n1` it is -0.25. With `Cc1ccccc1OCCN1C(=O)NC2(CCCc3ccccc32)C1=O` (stereo unspecified) the figure was 0.127; with `COc1cc(Cc2nc3ccc(S(=O)(=O)N4CCOCC4)cc3[nH]2)cc(OC)c1OC`, -0.253; with `Cc1ccc(Cl)cc1Nc1nc(-c2sc(NC(=O)c3ccccc3)nc2C)cs1`, 0.131. In the case of `CCOC(=O)C(Cc1ccccc1)NC(=O)CCc1c(C)nc2nc(C)nn2c1C` (stereo unspecified), the z-score is -0.164. With `CCOC(=O)C1CCN(c2c(NC3CCCc4ccccc43)c(=O)c2=O)CC1` (stereo unspecified) the figure was -0.182. For `O=C(CSc1cccc2cccnc12)OCC(=O)c1ccc(Br)cc1`, the z-score is -0.113.

Regarding `COCc1cc(C)nc(NCCc2ccccc2)c1C#N`, the z-score is -0.235. `CCC(Sc1ncccn1)C(=O)Nc1cc(C)on1` (stereo unspecified) returned a z-score of -0.0616. `CCCNCc1cc(Cl)c(OCC)c(Cl)c1` came in with a z-score of 0.467. The compound `CC(C)CCNC(=O)C(NS(=O)(=O)c1ccc2c(c1)c(=O)n(C)c(=O)n2C)c1ccccc1` (stereo unspecified) yielded a z-score of -0.127.

`COC(=O)c1[nH]c2ccc(C)cc2c1NC(=O)NC1CCCCC1` yielded a z-score of -0.116. With `Cc1cc(/C=N\NC(=O)CC(=O)NC2CCCCC2)c(C)n1-c1ccc(Cl)cc1` the figure was 1.21.

Compound `CCOc1ccccc1C(=O)Nc1nncs1` returned a z-score of -0.106.

As for `Cc1ccc(NC(=O)N2C(=O)C3(OCCO3)c3ccccc32)cc1`, the z-score was -0.237. With `Cc1cc(NC(=O)CSCC(=O)N(c2ccc(F)cc2)C(C(=O)NC2CCCCC2)c2ccc(O)c(O)c2)no1` (stereo unspecified) the figure was -0.0976; with `O=C(c1ccc(F)cc1)N1CCN(c2ncccn2)CC1`, -0.204. The figure for `Cc1ccc(-n2c(=O)c3sccc3n(Cc3cc(=O)n4cc(Cl)ccc4n3)c2=O)cc1F` is -1.59; for `O=C(O)CCC(=O)NCc1cn(-c2ccccc2)nc1-c1cccc(Br)c1` it is -1.36.

`O=C(NCCN1CCOCC1)c1ccc(F)cc1`: the z-score worked out at 0.0457. With `CCOc1cc(C(=S)N2CCN(C)CC2)ccc1OCC(=O)N1CCOCC1` the figure was -0.0898. With `CCCCCCc1nc2ccccc2c(=O)n1NC(=O)c1c(O)c2cccc3c2n(c1=O)CCC3` the figure was 0.688; with `C=CCOC(=O)C1C(=O)CC(C)(O)C(C(=O)OCC=C)C1c1ccc(OCC)cc1` (stereo unspecified), -0.0991. The figure for `O=C(CN1CCOc2ccccc21)NCc1ccco1` is -0.167; for `Cc1ccccc1N1CCN(S(=O)(=O)c2ccccc2)CC1` it is -0.44; for `COC(=O)c1cc2oc(C)cc2n1CC(=O)N(C)c1ccccc1` it is 0.244. Turning to `CCN(CC)S(=O)(=O)c1ccc(NC(=O)c2ccccc2N(C)S(C)(=O)=O)cc1`, the z-score was -0.192.

`CC1(C(=O)O)CCC(C(=O)NC2CCCCCC2)C1(C)C` (stereo unspecified) gave a z-score of -0.335. The figure for `CCn1c(=O)cc(C(=O)OC)sc1=Nc1ccc(F)c(F)c1` is -0.202; for `N#CC(C(=O)NCCc1ccccc1)c1nc2ccccc2nc1N1CCOCC1` (stereo unspecified) it is 0.253. The figure for `CCc1nnc(NC(=O)C2Cc3ccccc3CN2S(=O)(=O)c2c(C)c(C)cc(C)c2C)s1` (stereo unspecified) is -0.206; for `Nc1c(C(=O)Nc2ccc(Cl)c(Cl)c2)sc2nc(-c3cccnc3)ccc12` it is -0.44; for `O=Cc1c(Sc2ccccc2)nc2ccccn2c1=O` it is -0.861.

In turn, `Cc1cnc(C(=O)Nc2ccccc2C(=O)N2CCOCC2)cn1` gave a z-score of 0.343. With `O=C(Nc1cccc(Cl)c1Cl)c1ccc(-c2ccccc2)cc1` the figure was 0.219. With `Cc1ccc(O)c(/C=N/NC(=O)c2[nH]ncc2Br)c1` the figure was -0.036. With `COc1ccc(-n2c(=S)[nH]c3c(oc4ccccc43)c2=O)cc1` the figure was 0.609. On to `O=C1NC2C(NC(=O)N2C2CCCCC2)N1C1CCCCC1` (stereo unspecified), for which the z-score was -0.902. The figure for `O=C(Nc1nnc(-c2ccccc2Cl)o1)c1ccco1` is 0.121. With `COc1cc(S(=O)(=O)N(Cc2ccccc2)Cc2ccccn2)ccc1-n1cnnn1` the figure was -0.0596. On to `CCOc1cc(S(=O)(=O)NC2CCCCCC2)ccc1F`, for which the z-score was found to be 0.581. The figure for `CC1(C)C(c2cccs2)=[N+]([O-])C2(CCCCC/C2=N\NC(N)=S)N1O` (stereo unspecified) is 0.131; for `Cc1ccc(Cn2c(CN3CC(C)OC(C)C3)nc3c2c(=O)[nH]c(=O)n3C)cc1` (stereo unspecified) it is 0.0226; for `CC(C)NCCOCCOc1ccccc1F` it is 0.394. `O=C(c1cc2ccccc2c(=O)o1)N1CCc2ccccc2C1` returned a z-score of -0.143. With `C/C(CC(=O)Nc1ccc(N(C)C)cc1)=N\NC(=O)c1ccccn1` the figure was -0.921. With `CSc1ccc(/C=N/NC(=O)COc2ccc(Br)cc2Cl)cc1` the figure was -0.214. With `Cc1nc(Cl)c2oc3ccccc3c2n1` the figure was -1.14; with `O=C1CCC(=O)N1c1ccccc1-c1ccccc1`, 0.624; with `COc1ccccc1-c1nnc(SCC(=O)NC2CCS(=O)(=O)C2)n1CCc1ccccc1` (stereo unspecified), 0.0681.
